The whole screen tested about 45,000 compounds, of which about 200 (0.44%) were called active. Inconclusive means that the source gave no clear call. Such entries were picked first, then a sample of the others. The call rests on the fitted dose curve; in most records, active means well fitted activation curve with a large enough effect; inconclusive means small, poorly fitted or top-dose-only effect; inactive means no such curve, though single readings can be large or run the other way. Where the call is inconclusive, the potency comes from a doubtful curve fit.
Assay: qHTS of TDP-43 Inhibitors: NCGC Sytravon Library Screen; further: nearly all actives have a fitted effect of over 55% in size; on growth rescue (activation): 0% is about no effect
Conditions: yeast TDP-43 toxicity rescue, BacTiter-Glo growth, 24 h; growth rescue (activation): at 46.1 µM (top of the series)
Summary of the method: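 TDP-43-expressing yeast, pregrown in raffinose, seeded at OD600 0.02 in galactose medium with compound for 24 hr at 30 deg C. Growth read by BacTiter-Glo luminescence, so rescue of toxicity appears as activation.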
Potency means the concentration at half of the fitted maximal effect; tags describe the fitted curve by direction and shape.

Row | SMILES | Potency | growth rescue (activation)
1 | COc1ccccc1CNc1nc(NCc2ccc(C(C)C)cc2)c2sccc2n1 | inconclusive: 20 µM [activator, single point] | 
2 | COc1cccc(-c2onc3ccc(C4(C)OCCO4)cc23)c1 | inconclusive: 12.6 µM [activator, partial curve, poor fit] | 
3 | CCc1cccc(CC)c1N(COC)C(=O)Cn1c(CC)nc2ccccc21 |  | inactive: 18%
4 | Cc1ccsc1C(=O)N1CCC1(C)C(=O)NCc1cccc2ccccc12 (stereo not given) | inconclusive: 20 µM [activator, single point] | 
5 | CN(C(=O)Cn1c(=O)n(CCC(=O)NCc2ccc3c(c2)OCO3)c(=O)c2sccc21)c1ccccc1 |  | inactive: 4%
6 | CN(C)c1oc(/C=C/c2ccccc2)nc1C#N | inconclusive: 7.94 µM [activator, partial curve, poor fit] | 
7 | CC(C)Oc1ccc(C(=O)Nc2ccc(NC(=O)c3ccco3)c(Cl)c2)cc1 |  | inactive: 19.2%
8 | CN(C(=O)c1cccc(C(F)(F)F)c1)C1CCCc2ccccc21 (stereo not given) | inconclusive: 22.4 µM [activator, single point] | 
9 | O=C(/C=C/c1ccc(F)cc1)c1cc(Br)ccc1O | inconclusive: 10 µM [activator, partial curve, poor fit] | 
10 | N/C(Cc1ccc([N+](=O)[O-])cc1)=N\OC(=O)Cc1ccc(Cl)cc1 | inconclusive: 12.6 µM [activator, partial curve, poor fit] | 
11 | N#Cc1ccc(Cn2ccnc2C(=O)Nc2ccccc2)cc1 | inconclusive: 8.91 µM [activator, partial curve] | 
12 | Cc1sc2ncn3cnnc3c2c1C | inconclusive: 7.08 µM [activator, partial curve] | 
13 | CC1=CS(=O)(=O)CC1SC(=S)N(C)C1CCS(=O)(=O)C1 (stereo not given) |  | inactive: -0.655%
14 | Cc1nc(Nc2ccccc2)sc1-c1ccccc1 | inconclusive: 10 µM [activator, partial curve] | 
15 | Cn1c(/C(C#N)=C/c2ccc(C(F)(F)F)cc2)nc2ccccc21 | inconclusive: 31.6 µM [activator, partial curve, poor fit] | 
16 | C/C(=N\NC(=O)CNC(=O)c1cccc(F)c1)c1ccc2ccccc2c1 |  | inactive: 6.89%
17 | Cc1ccc2c(c1)/C(=C/c1ccccc1)C(=O)N2 | active: 22.4 µM | 
18 | O=c1c2sccc2n(Cc2cc(=O)n3cc(Cl)ccc3n2)c(=O)n1-c1ccccc1 |  | inactive: 14.1%
19 | O=C(NCc1ccc(Cl)cc1)c1cc(=O)[nH]c2ccccc12 |  | inactive: 0.875%
20 | Cc1ccc(NC(=O)C2CCCN(C(=O)NCc3ccccc3)C2)c(C)c1 (stereo not given) |  | inactive: 15.5%
21 | O=C(c1cc(-c2cccs2)nc2ccccc12)N1CCN(c2ccccc2O)CC1 | inconclusive: 28.2 µM [activator, single point] | 
22 | CC(C)CCNC(=O)CN(Cc1ccco1)C(=O)CCC(=O)Nc1nccs1 |  | inactive: 0.887%
23 | CCOC(=S)SCC(=O)Nc1ncc(C)s1 | inconclusive: 15.8 µM [activator, partial curve, poor fit] | 
24 | CC(OC(=O)c1cc(Cl)ccc1[N+](=O)[O-])C(=O)NC(C)c1ccc(F)cc1 (stereo not given) | inconclusive: 8.91 µM [activator, partial curve] | 

Row | SMILES | Potency | growth rescue (activation)
25 | CC(=O)NC(c1cccc(F)c1)c1nc(-c2cnn(C)c2)cs1 (stereo not given) |  | inactive: 6.6%
26 | CC1(C(=O)O)CCCN(C(=O)c2cc3ccccc3s2)C1 (stereo not given) | inconclusive: 35.5 µM [activator, single point] | 
27 | CC(C)C(=O)Nc1cccc(-c2csc(-c3ccccc3)n2)c1 | inconclusive: 17.8 µM [activator, partial curve, poor fit] | 
28 | COCCCNc1ccn2nc(-c3ccc(CC(C)C)cc3)cc2n1 |  | inactive: -47.9%
29 | CCOC(=O)c1cc(-c2ccccc2)nc2nc(N(CC)CC)sc12 | inconclusive: 31.6 µM [activator, single point] | 
30 | N#CC1CCCc2c1[nH]c1ccc([N+](=O)[O-])cc21 (stereo not given) | inconclusive: 20 µM [activator, partial curve] | 
31 | N/C(=N\OC(=O)c1ccc(Cl)cc1[N+](=O)[O-])c1cccnc1 |  | inactive: 14.2%
32 | CSCCC(=O)N1C(C)CCCC1C(=O)O (stereo not given) |  | inactive: 19.2%
33 | O=C(Cc1cccs1)Nc1cccc(-c2nc3cc4ccccc4cc3[nH]2)c1 |  | inactive: -18%
34 | COc1ccccc1NC(=O)CSc1nnc(C)s1 |  | inactive: 3.83%
35 | Cc1ccc(-c2c(C(=O)NCc3ccccc3)oc(=O)c3ccccc23)cc1 | inconclusive: 25.1 µM [activator, partial curve, poor fit] | 
36 | CC(=O)Nc1cccc(-c2csc(C(C)(O)c3ccc(F)c(F)c3)n2)c1 (stereo not given) |  | inconclusive: 34.1% [activator]
37 | COc1ccc(OC)c(NC(=O)c2cc3c(s2)-c2ccccc2SC3)c1 | inconclusive: 11.2 µM [activator, partial curve, poor fit] | 
38 | COc1ccc(N2CCN(C(=O)c3cn(C4CCCC4)c(=O)c4c3c3ccccc3n4C)CC2)cc1 | inconclusive: 35.5 µM [activator, single point] | 
39 | CSCC[C@H](NC(=O)Nc1cccc(C(F)(F)F)c1)C(=O)O | inconclusive: 1.58 µM [activator, partial curve, poor fit] | 
40 | COc1ccc(C(=O)OCC(=O)c2ccc[nH]2)c(OC)c1 |  | inactive: 15.6%
41 | O=S(=O)(NC1CCCCC1Oc1ccccc1)c1ccccc1 (stereo not given) | inconclusive: 5.01 µM [activator, partial curve] | 
42 | Cn1cnnc1Sc1ccc(C(=O)OCC(=O)NCC(F)(F)F)cc1[N+](=O)[O-] | inconclusive: 35.5 µM [activator, partial curve, poor fit] | 
43 | O=[N+]([O-])c1ncn(Cc2ccccc2Cl)n1 | inconclusive: 11.2 µM [activator, partial curve, poor fit] | 
44 | Cc1cc(S(=O)(=O)Nc2ccc(N3CCOCC3)cc2)ccc1Br | inconclusive: 12.6 µM [activator, partial curve, poor fit] | 
45 | Cc1cccc(C)c1OC(=O)Cc1ccccc1[N+](=O)[O-] | inconclusive: 11.2 µM [activator, partial curve, poor fit] | 
46 | COc1ccc(-c2coc3c(C(=O)NC(C)C)cccc23)c(C)c1 | inconclusive: 15.8 µM [activator, single point] | 
47 | CCC(C)N(C(=O)CSc1ccc(NC(C)=O)cc1)C1CCS(=O)(=O)C1 (stereo not given) |  | inactive: 13.3%
48 | CC(Oc1ccc(Cl)cc1Cl)c1ccnc2nc(N3CCOCC3)nn12 (stereo not given) | inconclusive: 20 µM [activator, single point] | 

Row | SMILES | Potency | growth rescue (activation)
49 | O=C(N/N=C/C(Cl)=C/c1ccc([N+](=O)[O-])cc1)C(=O)Nc1ccccc1C(=O)O | inconclusive: 28.2 µM [activator, partial curve, poor fit] | 
50 | OCCc1ccc(O)c(-n2nc3ccccc3n2)c1 | inconclusive: 12.6 µM [activator, partial curve, poor fit] | 
51 | Cc1ccc(COC(=O)c2cccc(S(=O)(=O)N3CCCCC3)c2)cc1 |  | inactive: 33.2%
52 | Cn1nc(C(C)(C)C)cc1C(=O)N1CCCCC1c1cc(C(=O)NCc2cccnc2)no1 (stereo not given) |  | inactive: -7.03%
53 | CCc1cc(SC#N)cc(C)c1NC(=O)CCl | inconclusive: 14.1 µM [activator, single point] | 
54 | CC(C)(C)SCCNC(=O)c1cccc([N+](=O)[O-])c1 |  | inactive: 3.85%
55 | Cc1c(C(=O)O)oc2c1-c1nn(Cc3ccccc3Cl)cc1CC2 | active: 11.2 µM | 
56 | CCc1c(C)nc2c(-c3ccccc3)c(C)nn2c1Nc1ccc(NC(C)=O)cc1 | inconclusive: 28.2 µM [activator, single point] | 
57 | COc1ccc(CCNC(=O)COC(=O)Cc2ccc(OC)cc2)cc1 | inconclusive: 28.2 µM [activator, partial curve, poor fit] | 
58 | CCCCc1ccc(NC(=O)C2CCCO2)cc1 (stereo not given) | inconclusive: 14.1 µM [activator, partial curve, poor fit] | 
59 | Cc1cc(-c2ccc(Cl)s2)n[nH]1 | inconclusive: 12.6 µM [activator, partial curve] | 
60 | Cc1ccc(CSCc2ccc(C(=O)NCCC(C)C)o2)cc1 |  | inactive: 7.14%
61 | Cc1cc(-c2nnc(CCC(=O)N(C)Cc3cccc4ccccc34)o2)no1 | inconclusive: 35.5 µM [activator, single point] | 
62 | O=S(=O)(Nc1nc2ccccc2nc1NCC1CCCO1)c1cc(Cl)ccc1Cl (stereo not given) | inconclusive: 20 µM [activator, partial curve, poor fit] | 
63 | COc1ccc(NC(=S)NCC2CCN(c3ccc(OC)cc3)C2)cc1 (stereo not given) | inconclusive: 10 µM [activator, partial curve, poor fit] | 
64 | N#Cc1ccc(NC(=O)C2Cc3ccccc3CN2S(=O)(=O)c2ccc(F)cc2)cc1 (stereo not given) | inconclusive: 22.4 µM [activator, partial curve, poor fit] | 
65 | O=C(CCl)Nc1ccccc1C(=O)Nc1ccc2c(c1)OCO2 | inconclusive: 11.2 µM [activator, partial curve, poor fit] | 
66 | NS(=O)(=O)c1cccc(NC(=O)CN2CCN(Cc3ccc4c(c3)OCO4)CC2)c1 |  | inactive: 4.66%
67 | CCC1CCCCN1C(=O)CSc1nc2c(c(=O)n(C)c(=O)n2C)n1C (stereo not given) |  | inactive: -3.65%
68 | CCCOc1ccc(F)cc1-c1cc(C(=O)NCc2cccc(C(F)(F)F)c2)[nH]n1 |  | inconclusive: 44.3% [activator]
69 | O=S(=O)(NCc1ccc2c(c1)OCO2)c1c(F)cc(F)cc1Br | inconclusive: 12.6 µM [activator, partial curve, poor fit] | 
70 | O=C(c1cc(-c2ccc(O)cc2)on1)N1CCCCCC1 | inconclusive: 11.2 µM [activator, partial curve, poor fit] | 
